Data from the RNAGym collection of RNA variant scans (doi:10.7554/elife.90254).
Read counts are not given, so values of variants with three or more changes are uncertain.

B1: LINE1-mini (parent)
chain: GGCAGAGCUCAACACAGCGUGGCAAAGUGGCUGUGGCUAGACUGCC

Variants of: B1
Test: self-cleavage, relative activity (ratio to wild type); higher = more cleavage; in vitro, sequencing; the parent is a self-cleaving ribozyme
C13U U38A G40U gave a self-cleavage of 0.08. C13U C18A C23U A25C G35A showed a self-cleavage of 1.16. In the case of A14C C15A G22A G29U C42U, the self-cleavage is reported as 0.04. Variant C13U C18U A39G has a self-cleavage of 0.37. Work on A14C C15U U28C yielded a self-cleavage of 0.08. In the case of A14C A25C G27A, the self-cleavage is reported as 0.07. C13U A24G U28G showed a self-cleavage of 0.07. In the case of C13U G22C C23U G35C C45U, the self-cleavage is reported as 0. C13U C18U U20C gave a self-cleavage of 0.06. A14C A16C C18G U38C A41G showed a self-cleavage of 0.04. Work on A14C G17C G33A yielded a self-cleavage of 0.03. A14C C31U G40C showed a self-cleavage of 0.02. C13U A26U G36C G44A showed a self-cleavage of 0.03. Variant C13U C23U C37U has a self-cleavage of 0.81. For A14C G29U U32A G36U, the self-cleavage was 0.07. A14C G29A G30A showed a self-cleavage of 0.26. Variant A14C G22A U32C has a self-cleavage of 0.07. A14C G17C A24C G36A showed a self-cleavage of 0.01. C13U G30A U32A gave a self-cleavage of 0.29. Variant C13U G17U G30A G36C has a self-cleavage of 0.09. For A14C A16G G17C U20A U32A U38C, the self-cleavage was 0.02. In the case of C13U G35U G40A, the self-cleavage is reported as 0.11. For A14C G29U C31U, the self-cleavage was 0.21. Variant A14C G29U C31G has a self-cleavage of 0.03. Variant C13U A25U U32G A39C has a self-cleavage of 0.03. Work on C13U G27U U34A yielded a self-cleavage of 0. For C13U C18A C31U, the self-cleavage was 0.07. Variant C13U C18A C31A has a self-cleavage of 0.02. C13U C42U C46G showed a self-cleavage of 0.06. With C13U G27U C45U the self-cleavage was 0.09. Work on C13U G35U C45G yielded a self-cleavage of 0.2. With C13U C23U U32C G40U the self-cleavage was 0.18. In the case of A14C C15A U20C C23U G36A, the self-cleavage is reported as 0.05. C13U G19A U28C gave a self-cleavage of 0.08. Work on A14C G19A A39U yielded a self-cleavage of 1.29. C13U A25C G27U G40C gave a self-cleavage of 0.12. In the case of A14C A16G U34G, the self-cleavage is reported as 0.16. For A14C G17U C18G, the self-cleavage was 0.11. With A14C G21U G35U the self-cleavage was 0.07. Work on C13U G22C A41G yielded a self-cleavage of 0.12. With C13U G33A C45A the self-cleavage was 0. Work on A14C G17A G22C C31A U32C C37G C46G yielded a self-cleavage of 0. Variant A14C G17A U34C has a self-cleavage of 0.09. C13U C31U U38G gave a self-cleavage of 0. In the case of C13U G21C A41C, the self-cleavage is reported as 0.05. Variant C13U U38C A41C has a self-cleavage of 0.03. In the case of A14C G21U A26G A41G, the self-cleavage is reported as 0.03. With A14C A16U G22C A26C C46G the self-cleavage was 0.01. C13U G17A U28C showed a self-cleavage of 0.15. In the case of A14C A24C C31U, the self-cleavage is reported as 0. With C13U A25G U32C the self-cleavage was 0.09. For A14C A26C G36A C46A, the self-cleavage was 0.15. A14C C15G A25U G27U C31G G44U gave a self-cleavage of 0. For C13U A26U G29U C45G, the self-cleavage was 0.05. C13U G30U C31A gave a self-cleavage of 0.09. C13U G29C U34G C46U showed a self-cleavage of 0.01. Work on A14C C23U G33A G35U G36C C45A C46A yielded a self-cleavage of 0.11. Variant C13U C18U A25G A26G U28C G29C G36C has a self-cleavage of 0.04. For C13U A26C C37A G40U, the self-cleavage was 0.23. In the case of A14C G22U C45U, the self-cleavage is reported as 0.03. Variant C13U A26U G27C C37A has a self-cleavage of 0.09. In the case of C13U G19U G36A C45U, the self-cleavage is reported as 0.05. A14C G29U U43A C45A showed a self-cleavage of 0.01. Work on C13U U28G G30C yielded a self-cleavage of 0.05. Variant C13U G22C A24U U28G has a self-cleavage of 0.04. In the case of A14C G21A G22U C23A, the self-cleavage is reported as 0.03. For A14C G22C U38G, the self-cleavage was 0.01. With C13U G17U C37U the self-cleavage was 0.03. Work on C13U G17U G27C C42G U43G yielded a self-cleavage of 0.01. Work on C13U C15G A26C yielded a self-cleavage of 0.02. A14C C15A A16G gave a self-cleavage of 0.04. A14C C15G G36C C42U gave a self-cleavage of 0. A14C C15U G17A C23U showed a self-cleavage of 0.06. A14C C31U U38C showed a self-cleavage of 0.02. C13U A26G U34A showed a self-cleavage of 0.08. Variant C13U A26G U34C has a self-cleavage of 0.02. For C13U C15A G29A, the self-cleavage was 0.22. For C13U U34C G36U, the self-cleavage was 0.11. For C13U U28G G36U G40U C42G, the self-cleavage was 0.01. Work on C13U U32G G36U yielded a self-cleavage of 0.12. With A14C G29U G33A the self-cleavage was 0.11. In the case of C13U G17C C23A G36A, the self-cleavage is reported as 0.21. C13U C18A G22U G30A gave a self-cleavage of 0.08. With C13U C31G A39C G40A the self-cleavage was 0.
